The whole screen tested about 45,000 compounds, of which about 200 (0.44%) were called active. Not shown: some 7% with an inconclusive outcome. Calls come from the whole dose curve; as a rule, active = well fitted activation curve with a large enough effect; inconclusive = small, poorly fitted or top-dose-only effect; inactive = no such curve, though single readings can be large or run the other way. This is one part of the list.
Experiment: qHTS of TDP-43 Inhibitors: NCGC Sytravon Library Screen; note: 0% is about no effect; nearly all actives have a fitted effect of over 55% in size
Conditions: yeast TDP-43 toxicity rescue, BacTiter-Glo growth, 24 h; series mostly up to 46.1 µM; growth rescue (activation): at the top concentration
Summary of the method: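 TDP-43-expressing yeast, pregrown in raffinose, seeded at OD600 0.02 in galactose medium with compound for 24 hr at 30 deg C. Growth read by BacTiter-Glo luminescence, so rescue of toxicity appears as activation.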

Compound | growth rescue (activation)
COc1ccc(C2C(C#N)=C(/N=C/N3CCN(C)CC3)OC3=C2C(=O)CC(C)(C)C3)cc1 (stereo not drawn) | inactive: 14.8%
CC1Cc2ccccc2N1S(=O)(=O)c1cccc(C(=O)Nc2cccnc2)c1 (stereo not drawn) | inactive: 29.6%
O=C(c1cc(-c2ccccc2O)on1)N1CCCCC1 | inactive: 26.6%
CCCCOC(=O)Nc1ccc(S(=O)(=O)Nc2nccs2)cc1 | inactive: 2.55%
CCOc1ccc2nc(SCC(=O)Nc3cccc(S(=O)(=O)NC4=NCCCCC4)c3)[nH]c2c1 | inactive: -7.88%
Cc1ccc(NC(=O)CCNC(=O)c2ccc([N+](=O)[O-])cc2)cc1C | inactive: 17.3%
Cc1ccc(CCN2CC(C(=O)NCCC(C)C)CC2=O)cc1 (stereo not drawn) | inactive: -14%
Cc1ccc(S(=O)(=O)N2CCCCC2)cc1NS(=O)(=O)c1cccc(C(=O)O)c1 | inactive: 7.12%
O=C(CSc1ccccc1F)NC1CCS(=O)(=O)C1 (stereo not drawn) | inactive: 10.7%
CC(C(=O)NN=C(c1ccccc1)c1ccccc1)N1CCOCC1 (stereo not drawn) | inactive: 4.76%
C=CCN1C(=O)c2cccc3c(N4CCCCC4)ccc(c23)C1=O | inactive: 1.21%
COc1cccc(C(=O)NC(=O)Nc2cc(C)[nH]n2)c1 | inactive: 7.73%
O=C(Cn1c(=O)oc2ccccc21)NC(=O)NCc1ccccc1 | inactive: 19.4%
Cc1ccc(C)n1Cc1ccccc1Cl | inactive: 3.75%
O=C(c1cccs1)N1CCCC(c2nc3c(nnn3Cc3ccccc3Cl)c(=O)[nH]2)C1 (stereo not drawn) | inactive: -21.7%
C=CCN(C(=O)c1csnn1)C(C(=O)NCc1ccc(F)cc1)c1sccc1C (stereo not drawn) | inactive: 3.18%
CCOc1ccccc1/C=N/NC(=O)c1cc(C(C)C)[nH]n1 | inactive: 6.23%
COc1ccc(S(=O)(=O)N(C)c2ccc(C(=O)N3CCCCC3)cc2)cc1OC | inactive: 16%
CC(C)NC(=O)c1ccc(-c2ccc(F)c(F)c2)c2ccoc12 | inactive: 12.5%
CCc1nc2nc(C)c(NS(=O)(=O)c3ccc(F)cc3)c(=O)n2[nH]1 | inactive: 1.68%
COc1cc(S(=O)(=O)NCCCN2CCOCC2)ccc1-n1cnnn1 | inactive: 8.99%
COc1ccc(S(=O)(=O)N2CCN(C(=O)C3CCCCC3)CC2)cc1 | inactive: 13.5%

Compound | growth rescue (activation)
OCCN1CCN(c2ncnc3c2ncn3[C@H]2CN(Cc3ccco3)C[C@@H](CO)O2)CC1 | inactive: 0.0696%
CCN(CC)CCn1c(SCC(=O)NCCC2=CCCCC2)nc2c(sc3ccccc32)c1=O | inactive: 13.4%
CCCCOC(=O)C1=C(C)NC2(O)c3ccccc3C(=O)C12O (stereo not drawn) | inactive: -7.57%
COC(=O)CSc1ccc(-c2nc3ccc(C)cc3[nH]2)cn1 | inactive: 5.36%
CCOC(=O)c1c(C)[nH]c(C(=O)COC(=O)c2ccc(O)cc2)c1C | inactive: 15.6%
Cc1nn(-c2ccccc2)c(N2CCCC2)c1/C=N/NC(=O)c1cc2ccccc2cc1O | inactive: 23.4%
CCN1CCCc2cc(CN(CCN3CCOCC3)C(=S)Nc3ccc(C)cc3)ccc21 | inactive: -7.57%
CCOc1ccc(NC(=O)CC2Nc3ccccc3NC2=O)cc1 (stereo not drawn) | inactive: 14.8%
CCNC(=O)C1(C)CCN1Cc1cc(-c2ccccc2)n(C)n1 (stereo not drawn) | inactive: -4.03%
Cc1ccc(NC(=O)Cn2c(O)c(N=NC(N)=O)c3ccccc32)cc1 | inactive: 0.818%
O=[N+]([O-])c1cc(S(=O)(=O)N2CCCCC2)ccc1NCc1cccc(Cl)c1 | inactive: 8.5%
COc1cc(Cc2nccc3cc(OC)c(OC)cc23)c(S(=O)(=O)O)cc1OC | inactive: 4.59%
O=C(CSc1nnc(-c2cccc(F)c2)o1)NC1CCCC1 | inactive: 6.6%
CCC(C)NC(=O)CCc1nc2ccccc2n1-c1ccccc1 (stereo not drawn) | inactive: 9.83%
CCCNC(=O)c1cc(C2CCCN(C(=O)C3CC3)C2)on1 (stereo not drawn) | inactive: -2.85%
COc1ccc(CCN2C(=S)N(C)C(=O)C2CC(=O)Nc2ccc(OC)cc2)cc1 (stereo not drawn) | inactive: 18.1%
O=C(NCc1ccccc1)C(c1ccco1)N(C(=O)c1csnn1)c1ccccc1F (stereo not drawn) | inactive: 13.1%
Cc1ccc(CN2CCNC(=O)C2CC(=O)NCC(F)(F)F)o1 (stereo not drawn) | inactive: 15.8%
O=C1CCC(C(=O)Nc2cccc3ccccc23)N1 (stereo not drawn) | inactive: 13.4%
Cc1ccc(NC(=O)C2CCCCC2C(=O)O)cc1Cl (stereo not drawn) | inactive: 2.01%
CCOc1ccccc1C(=O)NC(C(=O)N(C)c1c(N)n(Cc2ccccc2)c(=O)[nH]c1=O)C(C)C (stereo not drawn) | inactive: 23.1%
O=C(N/C(=C/c1ccccc1)C(=O)N1CCCCCC1)c1ccccc1 | inactive: -1.51%

Compound | growth rescue (activation)
Cn1ccsc1=NC(=O)c1ccc(CS(C)(=O)=O)cc1 | inactive: -6.07%
O=C(CNC(=O)c1ccccc1F)Nc1ccccc1C(F)(F)F | inactive: 3.93%
Cc1nc(NC(=O)c2ccc3c(c2)OCO3)ccc1Br | inactive: 14.5%
O=C1[C@@H]2Cc3c([nH]c4ccccc34)C(c3ccccc3)N2C(=O)CN1C1CCN(Cc2ccccc2)CC1 (stereo partly drawn) | inactive: -15.3%
O=C(COC(=O)c1cc(S(=O)(=O)N2CCOCC2)ccc1F)NC1CC1 | inactive: -9.39%
Cc1ccc(C)c(Nc2nc(N)c3ccccc3n2)c1 | inactive: -16.2%
CC(=O)N1CCN(C(=S)c2ccc(Cl)cc2)CC1 | inactive: 16.6%
C/C(N)=C(/C#N)C(=O)COC(=O)c1ccc(OCC2CCCO2)cc1 (stereo not drawn) | inactive: 7.44%
O=C(COc1ccc(Br)cc1)NC(=S)Nc1ccccc1N1CCOCC1 | inactive: 11.8%
C=Cn1c(C(=O)O)ccc1-c1ccc(OC)cc1 | inactive: 22.1%
O=C(Nc1ccccn1)c1cc2ccccc2cc1O | inactive: 11.5%
O=C(Nc1nccs1)c1ccc2sc([C@H]3C[C@H](O)[C@@H](CO)O3)nc2c1 | inactive: 10.8%
Fc1ccc(NC(=S)NCc2ccccn2)cc1 | inactive: 22.3%
CC(C)C1Oc2ccccc2N(CC(=O)N(C)C2CCCCC2)C1=O (stereo not drawn) | inactive: -8.86%
NS(=O)(=O)c1cccc(NC(=O)CSc2nnc(C3CC3)n2-c2ccccc2)c1 | inactive: 18.6%
CC(=O)c1ccc(N2CCN(C(=O)CCC(=O)Nc3ccc4nc(N5CCN(C)CC5)cc(C)c4c3)CC2)cc1 | inactive: 14.6%
CCOC(=O)c1sc(NC(=O)c2cccc(S(=O)(=O)N3c4ccccc4CC3C)c2)cc1C (stereo not drawn) | inactive: 12.5%
CN(CC(=O)Nc1ccc(S(=O)(=O)N2CCCC2)cc1)Cc1ccc(Cl)cc1 | inactive: 6.81%
CC(CCc1ccccc1)NC(=O)COC(=O)CC1CC2CCC1C2 (stereo not drawn) | inactive: 10.5%
Cn1c(SCc2ccccc2C#N)nc2ccccc2c1=O | inactive: 15%
Cc1ccc(C2=NC(=O)/C(=C/c3cc(O)c(O)c(Br)c3)S2)cc1 | inactive: 12.4%
NS(=O)(=O)c1ccc(CNC(=O)CC23CC4CC(CC(C4)C2)C3)cc1 | inactive: 33.1%

Compound | growth rescue (activation)
Cc1ccc(C2=Nc3ccccc3N=C(c3ccco3)C2)c(O)c1 | inactive: 11%
N#CCCN(C(=O)Nc1ccc(Cl)c(Cl)c1)c1ccccc1 | inactive: 23.7%
CC1CCCN(C(=O)COC(=O)COc2ccc(Cl)cc2)C1 (stereo not drawn) | inactive: -7.49%
Cc1ccccc1-n1c(SCC(=O)c2c(N)n(C)c(=O)n(C)c2=O)nnc1-c1cccnc1 | inactive: 0.682%
COC(=O)c1ccccc1NC(=O)CNC(=O)c1ccc(OC)cc1 | inactive: 5.19%
CCCn1cc(CN2CCCC(CNC(=O)c3ccc(F)cc3)C2)c(C)n1 (stereo not drawn) | inactive: 10.9%
CCc1ccc(/C(C)=N/NC(=O)CNC(=O)/C=C/c2ccccc2OC)cc1 | inactive: 21.8%
Cc1c(NP(=O)(c2ccc(Br)cc2)c2ccc(Br)cc2)c(=O)n(-c2ccccc2)n1C | inactive: 15.6%
C=CCn1c(N)c(C(=O)OC(C)(C)C)c2nc3ccccc3nc21 | inactive: 30.6%
O=C1CC2c3ccccc3C1C1C(=O)N(CCO)C(=O)C21 (stereo not drawn) | inactive: -10.1%
O=C(CN1C(=O)NC2(CCCCC2)C1=O)Nc1ccc2c(c1)CCC2 | inactive: 3.82%
CCOc1ccccc1OCCCC(=O)OCC(=O)Nc1cccc(Cl)c1 | inactive: -2.1%
O=C(NCCCN1CCOCC1)C(=O)N/N=C/c1ccccc1O | inactive: -10.2%
COc1ccc(C2c3ccc(O)cc3Oc3ncn4nc(-c5ccco5)nc4c32)cc1OC (stereo not drawn) | inactive: 19.1%
O=C(NC(c1ccc(Cl)cc1)c1ccsc1)C1CCN(Cc2cccc(C(F)(F)F)c2)CC1 (stereo not drawn) | inactive: 1.45%
CCCc1cc(C(=O)OC)c(NC(=O)CCCC(=O)O)s1 | inactive: 21.4%
CNC(=S)N1CCc2ccccc2C1 | inactive: 0.546%
O=C(NCCC(=O)N(Cc1ccco1)Cc1cccs1)c1ccc([N+](=O)[O-])cc1 | inactive: -0.069%
O=[N+]([O-])c1ccc(N=Nc2ccc(O)cc2O)cc1 | inactive: 9.11%
COc1ccc(CNCCNC(=O)c2cccs2)cc1OC | inactive: 9.91%
O=C(COC(=O)c1cnccn1)c1ccccc1 | inactive: 40.5%
O=C(COC(=O)CCSc1ccccc1)Nc1ccc(F)cc1Cl | inactive: -10.2%

Compound | growth rescue (activation)
Cn1c(SCC(=O)Nc2sccc2C(N)=O)nc2ccccc2c1=O | inactive: 10.1%
O=C(NCCC(F)(F)F)C1Cc2c(-c3cccc(F)c3)ccnc2O1 (stereo not drawn) | inactive: 2.59%
CCc1nc2sc(C(=O)O)c(N)c2c2c1CCCC2 | inactive: -4.63%
COCCNC(=O)C1(C)CCN(C(=O)c2cccc(C)c2C)C1 (stereo not drawn) | inactive: -3.07%
O=C(O)c1ccc(N/N=C/c2ccc3ncccc3c2)cc1 | inactive: 15.2%
CC(=O)Nc1nc(C)c(Cc2ccccc2)c(=O)[nH]1 | inactive: 0.385%
O=[N+]([O-])c1ccc(O)c(Nc2ncnc3ccc(Br)cc23)c1 | inactive: -9.28%
Nc1ccccc1OCCOCCOc1ccccc1N | inactive: -17%
Cc1cc2ccccc2n2c(SCC(=O)N3CCOCC3)nnc12 | inactive: -5.37%
CCOc1nc(C#N)nc(N2CCCCC2)n1 | inactive: 22%
Cc1ccc(S(=O)(=O)/N=C2\C=C(Nc3ccc(O)cc3)C(=O)c3ccccc32)cc1 | inactive: 4.46%
N#Cc1cc(Nc2c(N)nc[nH]c2=O)c([N+](=O)[O-])cc1C#N | inactive: -15.3%
Cc1cccc(NC(=O)CCC(=O)N/N=C/c2cc([N+](=O)[O-])ccc2O)c1 | inactive: 8.74%
Cc1ccc2nc(NC(=O)c3ccc(N4C(=O)CCC4=O)cc3)sc2c1 | inactive: 10.8%
CN1CCC(N(C)C(=O)/C(C#N)=C\c2ccc(OC(F)F)cc2)CC1 | inactive: -14.6%
Cc1ccccc1N(C(=O)CS(=O)CC(=O)Nc1ccc(F)cc1)C(C)C(=O)NC(C)(C)C (stereo not drawn) | inactive: -2.91%
O=C(Nc1nc2ccccc2[nH]1)c1cccc(S(=O)(=O)N2CCOCC2)c1 | inactive: -9.65%
COc1ccc(CCNCC(O)COc2cccc(C(C)=O)c2)cc1OC (stereo not drawn) | inactive: -2.64%
CC(C)(C)c1ccc(CC(=O)N2CCC2(C)C(=O)NS(=O)(=O)c2cccc(Cl)c2)cc1 (stereo not drawn) | inactive: 22.1%
O=[N+]([O-])c1cccc(NC(=S)NCc2ccncc2)c1 | inactive: 10.4%

Source: PubChem BioAssay AID1347073 (National Center for Advancing Translational Sciences (NCATS), 2019)
